Data reported in patent publication US8067379B2, “Sulfur compounds as inhibitors of hepatitis C virus NS3 serine protease” (Schering Corporation, priority 2004, dated 2011).

Molecular target: Recombinant heterodimeric HCV NS3/NS4A protease (strain 1a) (Hepatitis C virus genotype 1a, UniProt P27958)
Experiment: Spectrophotometric assay for HCV serine protease inhibitory activity (chromogenic ester substrates)
Type: biochemical
Details: Ki* Range, Table 3A; class symbols

Structure (SMILES)	Ki [nM]
C=CCNC(=O)C(=O)[C@H](CC1CC1)NC(=O)[C@@H]1[C@@H]2[C@H](CN1C(=O)[C@@H](NC(=O)NC1(CS(=O)(=O)C(C)(C)COC)CCCCC1)C1(C)CCCCC1)C2(C)C [Compound 811]	< 75

Same assay, conditions: Table 3A; cells that print a number instead of a class symbol; read-out: Ki* Range

Structure (SMILES)	Ki [nM]
CCCC[C@H](NC(=O)[C@@H]1[C@@H]2[C@H](CN1C(=O)[C@@H](NC(=O)NC1(CS(=O)(=O)C(C)(C)C)CCCCC1)C(C)(C)C)C2(C)C)C(=O)C(=O)NC1CC1 [Compound 843]	11

Same assay, conditions: Table 3A; class symbols; read-out: Ki* Range

Structure (SMILES)	Ki [nM]
CCCC[C@H](NC(=O)[C@@H]1[C@@H]2[C@H](CN1C(=O)[C@@H](NC(=O)NC1(C3CCCS3(=O)=O)CCCCC1)C(C)(C)C)C2(Cl)Cl)C(=O)C(=O)NC1CC1 (stereo partly drawn) [Compound 788]	< 75
C=CCNC(=O)C(=O)[C@H](CCC)NC(=O)[C@@H]1[C@@H]2[C@H](CN1C(=O)[C@@H](NC(=O)NC1(C3CCCS3(=O)=O)CCCCC1)C(C)(C)C)C2(Cl)Cl (stereo partly drawn) [Compound 789]	< 75
CCC[C@H](NC(=O)[C@@H]1[C@@H]2[C@H](CN1C(=O)[C@@H](NC(=O)NC1(C3CCCS3(=O)=O)CCCCC1)C(C)(C)C)C2(Cl)Cl)C(=O)C(=O)NC1CC1 (stereo partly drawn) [Compound 790]	< 75
C=CCNC(=O)C(=O)[C@H](CC1CC1)NC(=O)[C@@H]1[C@@H]2[C@H](CN1C(=O)[C@@H](NC(=O)NC1(C3CCCS3(=O)=O)CCCCC1)C(C)(C)C)C2(Cl)Cl (stereo partly drawn) [Compound 791]	< 75
CCC[C@H](NC(=O)[C@@H]1[C@@H]2[C@H](CN1C(=O)[C@@H](NC(=O)NC1(C3CCCCS3(=O)=O)CCCCC1)C1(C)CCCCC1)C2(C)C)C(=O)C(=O)NC1CC1 (stereo partly drawn) [Compound 793]	< 75
C=CCNC(=O)C(=O)[C@H](CC1CC1)NC(=O)[C@@H]1[C@@H]2[C@H](CN1C(=O)[C@@H](NC(=O)NC1(CS(=O)(=O)C3CCCCC3)CCCCC1)C(C)(C)C)C2(C)C [Compound 796]	< 75
CCCC[C@H](NC(=O)[C@@H]1[C@@H]2[C@H](CN1C(=O)[C@@H](NC(=O)NC1(C3CCCCS3(=O)=O)CCCCC1)C1(C)CCCCC1)C2(C)C)C(=O)C(=O)NC1CC1 (stereo partly drawn) [Compound 797]	< 75
CCCC[C@H](NC(=O)[C@@H]1[C@@H]2[C@H](CN1C(=O)[C@@H](NC(=O)NC1(C3CCCS3(=O)=O)CCCCC1)C1(C)CCCCC1)C2(C)C)C(=O)C(=O)NC1CC1 (stereo partly drawn) [Compound 799]	< 75
CCCC[C@H](NC(=O)[C@@H]1[C@@H]2[C@H](CN1C(=O)[C@@H](NC(=O)NC1(C3CCCS3(=O)=O)CCCCC1)C(C)(C)C)C2(C)C)C(=O)C(=O)NC1CC1 (stereo partly drawn) [Compound 800]	< 75
CCCC[C@H](NC(=O)[C@@H]1[C@@H]2[C@H](CN1C(=O)[C@@H](NC(=O)NC1(C3CCCCS3(=O)=O)CCCCC1)C(C)(C)C)C2(C)C)C(=O)C(=O)NC1CC1 (stereo partly drawn) [Compound 803]	< 75
CCCC[C@H](NC(=O)[C@@H]1[C@@H]2[C@H](CN1C(=O)[C@@H](NC(=O)NC1([C@H]3CN(C)CCS3(=O)=O)CCCCC1)C(C)(C)C)C2(C)C)C(=O)C(=O)NC1CC1 [Compound 804]	< 75
C=CCNC(=O)C(=O)[C@H](CCCC)NC(=O)[C@@H]1[C@@H]2[C@H](CN1C(=O)[C@@H](NC(=O)NC1([C@H]3CN(C)CCS3(=O)=O)CCCCC1)C(C)(C)C)C2(C)C [Compound 805]	< 75
C=CCNC(=O)C(=O)[C@H](CCC1CC1)NC(=O)[C@@H]1[C@@H]2[C@H](CN1C(=O)[C@@H](NC(=O)NC1(CS(=O)(=O)C(C)(C)COC)CCCCC1)C1(C)CCCCC1)C2(C)C [Compound 806]	< 75
CCCC[C@H](NC(=O)[C@@H]1[C@@H]2[C@H](CN1C(=O)[C@@H](NC(=O)NC1(CS(=O)(=O)C(C)(C)COC)CCCCC1)C1(C)CCCCC1)C2(C)C)C(=O)C(=O)NC1CC1 [Compound 807]	< 75
CCCC[C@H](NC(=O)[C@@H]1[C@@H]2[C@H](CN1C(=O)[C@@H](NC(=O)NC1(CS(=O)(=O)C(C)(C)CO)CCCCC1)C(C)(C)C)C2(C)C)C(=O)C(=O)NC1CC1 [Compound 808]	< 75
CCCC[C@H](NC(=O)[C@@H]1[C@@H]2[C@H](CN1C(=O)[C@@H](NC(=O)NC1(CS(=O)(=O)C(C)(C)CO)CCCCC1)C1(C)CCCCC1)C2(C)C)C(=O)C(=O)NC1CC1 [Compound 809]	< 75
C=CCNC(=O)C(=O)[C@H](CCCC)NC(=O)[C@@H]1[C@@H]2[C@H](CN1C(=O)[C@@H](NC(=O)NC1([C@H]3CCCS3(=O)=O)CCCCC1)C(C)(C)C)C2(Cl)Cl [Compound 813]	< 75
C=CCNC(=O)C(=O)[C@H](CCCC)NC(=O)[C@@H]1[C@@H]2[C@H](CN1C(=O)[C@@H](NC(=O)NC1([C@@H]3CCCS3(=O)=O)CCCCC1)C(C)(C)C)C2(Cl)Cl [Compound 814]	< 75
CCC[C@H](NC(=O)[C@@H]1[C@@H]2[C@H](CN1C(=O)[C@@H](NC(=O)NC1([C@H]3CCCS3(=O)=O)CCCCC1)C(C)(C)C)C2(Cl)Cl)C(=O)C(=O)NC1CC1 [Compound 815]	< 75
CCC[C@H](NC(=O)[C@@H]1[C@@H]2[C@H](CN1C(=O)[C@@H](NC(=O)NC1([C@@H]3CCCS3(=O)=O)CCCCC1)C(C)(C)C)C2(Cl)Cl)C(=O)C(=O)NC1CC1 [Compound 816]	< 75
CC1([C@H](NC(=O)NC2(C3CCCS3(=O)=O)CCCCC2)C(=O)N2C[C@H]3[C@@H]([C@H]2C(=O)N[C@@H](CCC2CC2)C(=O)C(=O)NC2CC2)C3(C)C)CCCCC1 (stereo partly drawn) [Compound 817]	< 75
C=CCNC(=O)C(=O)[C@H](CCC)NC(=O)[C@@H]1[C@@H]2[C@H](CN1C(=O)[C@@H](NC(=O)NC1(C3CCCCS3(=O)=O)CCCCC1)C1(C)CCCCC1)C2(C)C (stereo partly drawn) [Compound 818]	< 75

Structure (SMILES)	Ki [nM]
CCCC[C@H](NC(=O)[C@@H]1[C@@H]2[C@H](CN1C(=O)[C@@H](NC(=O)NC1([C@H]3CCCS3(=O)=O)CCCCC1)C(C)(C)C)C2(Cl)Cl)C(=O)C(=O)NC1CC1 [Compound 819]	< 75
CCCC[C@H](NC(=O)[C@@H]1[C@@H]2[C@H](CN1C(=O)[C@@H](NC(=O)NC1([C@@H]3CCCS3(=O)=O)CCCCC1)C(C)(C)C)C2(Cl)Cl)C(=O)C(=O)NC1CC1 [Compound 820]	< 75
C=CCNC(=O)C(=O)[C@H](CCC)NC(=O)[C@@H]1[C@@H]2[C@H](CN1C(=O)[C@@H](NC(=O)NC1(C3CCCCS3(=O)=O)CCCCC1)C(C)(C)C)C2(C)C (stereo partly drawn) [Compound 821]	< 75
C=CCNC(=O)C(=O)[C@H](CCC)NC(=O)[C@@H]1[C@@H]2[C@H](CN1C(=O)[C@@H](NC(=O)NC1(CS(=O)(=O)C3(C)CCOCC3)CCCCC1)C(C)(C)C)C2(C)C [Compound 822]	< 75
C=CCNC(=O)C(=O)[C@H](CCCC)NC(=O)[C@@H]1[C@@H]2[C@H](CN1C(=O)[C@@H](NC(=O)NC1(CS(=O)(=O)C3(C)CCOCC3)CCCCC1)C(C)(C)C)C2(C)C [Compound 823]	< 75
C=CCNC(=O)C(=O)[C@H](CC1CC1)NC(=O)[C@@H]1[C@@H]2[C@H](CN1C(=O)[C@@H](NC(=O)NC1(CS(=O)(=O)C3(C)CCOCC3)CCCCC1)C(C)(C)C)C2(C)C [Compound 824]	< 75
C=CCNC(=O)C(=O)[C@H](CCC)NC(=O)[C@@H]1[C@@H]2[C@H](CN1C(=O)[C@@H](NC(=O)NC1([C@H]3CCCS3(=O)=O)CCCCC1)C(C)(C)C)C2(Cl)Cl [Compound 825]	< 75
C=CCNC(=O)C(=O)[C@H](CCC)NC(=O)[C@@H]1[C@@H]2[C@H](CN1C(=O)[C@@H](NC(=O)NC1([C@@H]3CCCS3(=O)=O)CCCCC1)C(C)(C)C)C2(Cl)Cl [Compound 826]	< 75
C=CCNC(=O)C(=O)[C@H](CC1CC1)NC(=O)[C@@H]1[C@@H]2[C@H](CN1C(=O)[C@@H](NC(=O)NC1([C@H]3CCCS3(=O)=O)CCCCC1)C(C)(C)C)C2(Cl)Cl [Compound 827]	< 75
C=CCNC(=O)C(=O)[C@H](CC1CC1)NC(=O)[C@@H]1[C@@H]2[C@H](CN1C(=O)[C@@H](NC(=O)NC1([C@@H]3CCCS3(=O)=O)CCCCC1)C(C)(C)C)C2(Cl)Cl [Compound 828]	< 75
CCC[C@H](NC(=O)[C@@H]1[C@@H]2[C@H](CN1C(=O)[C@@H](NC(=O)NC1(C3CCCCS3(=O)=O)CCCCC1)C(C)(C)C)C2(C)C)C(=O)C(=O)NC1CC1 (stereo partly drawn) [Compound 829]	< 75
C=CCNC(=O)C(=O)[C@H](CCCC)NC(=O)[C@@H]1[C@@H]2[C@H](CN1C(=O)[C@@H](NC(=O)NC1(C3CCCCS3(=O)=O)CCCCC1)C(C)(C)C)C2(C)C (stereo partly drawn) [Compound 830]	< 75
CCC[C@H](NC(=O)[C@@H]1[C@@H]2[C@H](CN1C(=O)[C@@H](NC(=O)NC1(CS(=O)(=O)C3(C)CCOCC3)CCCCC1)C(C)(C)C)C2(C)C)C(=O)C(=O)NC1CC1 [Compound 832]	< 75
CCCC[C@H](NC(=O)[C@@H]1[C@@H]2[C@H](CN1C(=O)[C@@H](NC(=O)NC1(CS(=O)(=O)C3(C)CCOCC3)CCCCC1)C(C)(C)C)C2(C)C)C(=O)C(=O)NC1CC1 [Compound 833]	< 75
C=CCNC(=O)C(=O)[C@H](CCC)NC(=O)[C@@H]1CC2(CN1C(=O)[C@@H](NC(=O)NC1(CS(=O)(=O)C(C)(C)C)CCCCC1)C(C)(C)C)SCCCS2 [Compound 834]	< 75
CC1([C@H](NC(=O)NC2([C@@H]3CCCS3(=O)=O)CCCCC2)C(=O)N2C[C@H]3[C@@H]([C@H]2C(=O)N[C@@H](CCC2CC2)C(=O)C(=O)NC2CC2)C3(C)C)CCCCC1 [Compound 835]	< 75
CCC[C@H](NC(=O)[C@@H]1[C@@H]2[C@H](CN1C(=O)[C@@H](NC(=O)NC1([C@@H]3CCCS3(=O)=O)CCCCC1)C(C)(C)C)C2(C)C)C(=O)C(=O)NC1CC1 [Compound 836]	< 75
CCCC[C@H](NC(=O)[C@@H]1[C@@H]2[C@H](CN1C(=O)[C@@H](NC(=O)NC1([C@@H]3CCS3(=O)=O)CCCCC1)C(C)(C)C)C2(C)C)C(=O)C(=O)NC1CC1 [Compound 837]	< 75
C=CCNC(=O)C(=O)[C@H](CCCC)NC(=O)[C@@H]1[C@@H]2[C@H](CN1C(=O)[C@@H](NC(=O)NC1([C@@H]3CCS3(=O)=O)CCCCC1)C(C)(C)C)C2(C)C [Compound 838]	< 75
C=CCNC(=O)C(=O)[C@H](CCC)NC(=O)[C@@H]1CC2(CN1C(=O)[C@@H](NC(=O)NC1(C3CCCS3(=O)=O)CCCCC1)C(C)(C)C)SCCCS2 (stereo partly drawn) [Compound 845]	< 75
CCC[C@H](NC(=O)[C@@H]1CC2(CN1C(=O)[C@@H](NC(=O)NC1([C@@H]3CCCS3(=O)=O)CCCCC1)C1(C)CCCCC1)SCCCS2)C(=O)C(=O)NC1CC1 [Compound 846]	< 75
